Structures can show the parent of a compound that is named as a salt. The full ranking holds about 2,000 compounds; the median of “fractional viability relative to vehicle” is about 0.92, and the lowest 2% start at about 0.11. This is one part of the list.
Tested on: TYKNU
Assay: fractional viability relative to vehicle; TYKNU is a high-grade serous ovarian cancer line; higher = less growth inhibition
Settings: 72 h, genotype: OPA1 knockout (sgOPA1 #2)
In short: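 Drug treatment lasted 72 h, with cells grown at 37 °C in 5% CO2 in RPMI 1640 supplemented with 10% FBS. Beforehand, TYKNU control cells or their lentiCRISPRv2 knockout derivatives had been seeded at 500 cells per well into drug-stamped 384-well plates carrying a ~2100-compound library at 2 or 10 μM, in duplicate. Viability came from Cell Titer Glo luminescence, with averaged duplicate treatment wells normalised to duplicate control wells in the same plate position.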

SMILES | fractional viability (2uM) | fractional viability (10uM)
C=CCc1cc(OC)c(O)c(C(=O)NCCO)c1 [Alibendol] | 1.18 | 0.869
C#C[C@]1(O)CC[C@H]2[C@@H]3CCC4=CC(=O)CC[C@@H]4[C@H]3CC[C@@]21C [Norethindrone] | 0.976 | 0.798
CCOc1cn(-c2ccc(F)cc2C)nc1C(=O)Nc1ccc(Oc2ccnc3cc(OC)c(OC)cc23)c(F)c1 | 0.919 | 0.773
C#C[C@]1(OC(C)=O)CC[C@H]2[C@@H]3CCC4=C[C@@H](OC(C)=O)CC[C@@H]4[C@H]3CC[C@@]21C [Ethynodiol diacetate] | 0.883 | 0.807
CNC1CCC(N(Cc2cccc(-c3ccncc3)c2)C(=O)c2sc3ccccc3c2Cl)CC1 (centres undefined) [Smoothened Agonist (SAG) HCl] | 0.918 | 0.259
Nc1ccc(S(=O)(=O)Nc2ncccn2)cc1 [Sulfadiazine] | 1.09 | 1.11
CCCC(C)NC(=O)c1ccc(Cl)c(Cl)c1 (centres undefined) | 0.787 | 0.91
CCn1c(=O)c(-c2ccc(-c3cncs3)cc2Cl)cc2cnc(Nc3ccc(N4CCN(C)CC4)cc3)nc21 | 0.914 | 0.64
Cc1cnc(Nc2ccc(N3CCN(C)CC3)cc2)nc1Nc1cccc(S(=O)(=O)NC(C)(C)C)c1 | 0.575 | 0.172
OC[C@@H](O)[C@@H](O)CO [Erythritol] | 0.986 | 0.837
O=C1NC(=O)/C(=C/c2ccc(-c3ccc(F)cc3O)o2)S1 | 0.814 | 0.742
CC(C)CCN1c2nc(Nc3cc(F)c(O)c(F)c3)ncc2N(C)C(=O)C1C (centres undefined) | 1.08 | 0.734
NC1(c2ccc(-c3nc4ccn5c(=O)[nH]nc5c4cc3-c3ccccc3)cc2)CCC1 | 1.22 | 0.798
CN1CCN(CCCNc2ncc(Cl)c(-c3cc4c(C(=O)NC5CC5)cccc4s3)n2)CC1 | 0.827 | 0.764
NC(=O)c1noc([C@H](CCCC2CCCCC2)CC(=O)NO)n1 | 1.1 | 0.853
CC[C@@]1(O)C(=O)OCc2c1cc1n(c2=O)Cc2cc3cc(O)ccc3nc2-1 [(S)-10-Hydroxycamptothecin] | 0.179 | 0.157
Nc1cccc(S(=O)(=O)N2CCCN(S(=O)(=O)c3ccc4c(c3)OCCO4)CC2)c1 | 0.783 | 0.849
CC[C@H](C)n1cc(C)c2c(C(=O)NCc3c(C)cc(C)[nH]c3=O)cc(-c3ccc(N4CCNCC4)nc3)cc21 | 0.981 | 0.712
Cc1cccc(-c2[nH]c(C(C)(C)C)nc2-c2ccc3nccnc3c2)n1 | 1.28 | 1.26
C[C@@H](c1ncncc1F)[C@](O)(Cn1cncn1)c1ccc(F)cc1F [Voriconazole] | 1.14 | 1.05
Cc1c(NC(=O)c2ccc(C(C)(C)C)cc2)cccc1-c1cn(C)c(=O)c(Nc2ccc(C(=O)N3CCOCC3)cc2)n1 | 0.849 | 0.915
O=C(O)Cc1ccccc1Nc1c(Cl)cccc1Cl [Diclofenac Potassium] | 0.94 | 0.957
O=C(O)Cc1ccccc1Nc1c(Cl)cccc1Cl [Diclofenac Sodium] | 1.06 | 1.06
O=C(O)Cc1ccccc1Nc1c(Cl)cccc1Cl [Diclofenac Diethylamine] | 0.978 | 0.939

SMILES | fractional viability (2uM) | fractional viability (10uM)
CN(C)CCCNC(=O)c1ccc(-c2cc(O)c3ncccc3c2)cc1 | 0.891 | 0.677
C[C@@H]1CC(=O)NN=C1c1ccc(NN=C(C#N)C#N)cc1 [Levosimendan] | 1.34 | 0.837
CC(=O)Oc1cc(C(F)(F)F)ccc1C(=O)O [Triflusal] | 0.978 | 0.902
N=c1ccn2c(n1)O[C@H]1[C@H](O)[C@@H](CO)O[C@H]12 [Cyclocytidine HCl] | 0.827 | 0.813
CNC(=O)c1ccc2cc([C@@]3(O)CCn4cncc43)ccc2c1 [TAK-700 (Orteronel)] | 1.18 | 1.08
CNC(=O)c1ccccc1Oc1nc(Nc2cc(OC)c(OC)c(OC)c2)ncc1Br | 0.717 | 0.828
C[C@]12C=CC(=O)C=C1CC[C@@H]1[C@@H]2[C@@H](O)C[C@@]2(C)[C@H]1CC[C@]2(O)C(=O)CO [Prednisolone] | 1.11 | 1.07
O=c1ncn2nc(Sc3ccc(F)cc3F)ccc2c1-c1c(Cl)cccc1Cl | 1.36 | 1.01
O=c1[nH]cc(F)c(=O)[nH]1 [Fluorouracil (5-Fluoracil, 5-FU)] | 1.58 | 1.31
Cc1cncc(CN2CCC(=C3c4ccc(Cl)cc4CCc4cccnc43)CC2)c1 [Rupatadine Fumarate] | 1.06 | 0.915
CS(=O)(=O)c1ccc([C@@H](O)[C@@H](CO)NC(=O)C(Cl)Cl)cc1 [Thiamphenicol] | 1.02 | 1.07
COC(=O)[C@H]1[C@H]2C[C@@H]3c4[nH]c5cc(OC)ccc5c4CCN3C[C@H]2C[C@@H](OC(=O)c2cc(OC)c(OC)c(OC)c2)[C@@H]1OC [Reserpine] | 1.12 | 0.244
COc1cc2c(cc1OC)-c1cc3ccc(OC)c(OC)c3c[n+]1CC2 [Palmatine chloride] | 0.909 | 0.782
C=CCc1ccc(O)c(-c2ccc(O)c(CC=C)c2)c1 [Honokiol] | 0.957 | 1.01
CNC(=C[N+](=O)[O-])NCCSCc1ccc(CN(C)C)o1 [Ranitidine] | 1.09 | 1.09
OCc1ccc(-c2ccc(-c3ccc(CO)s3)o2)s1 | 0.599 | 0.407
O=c1c(-c2ccc(O)cc2)coc2cc(O)cc(O)c12 [Genistein] | 1.18 | 0.955
Cc1cc(N2CCOCC2)ccc1Nc1nc(NC2CCCCC2)c2[nH]cnc2n1 | 0.606 | 0.744
C[C@H](NC(=O)Cc1cc(F)cc(F)c1)C(=O)N[C@@H]1C(=O)N(C)c2ccccc2-c2ccccc21 | 0.997 | 1.02
O=C(O)c1ccc(Nc2ncc3c(n2)-c2ccc(Cl)cc2C(c2c(F)cccc2F)=NC3)cc1 | 0.977 | 0.718
CSc1cccc(Nc2ncc3cc(-c4c(Cl)cccc4Cl)c(=O)n(C)c3n2)c1 | 0.687 | 0.466
CCOc1ccn(-c2ccc(F)cc2)c(=O)c1C(=O)Nc1ccc(Oc2ccnc(N)c2Cl)c(F)c1 | 1.03 | 1.08
Cc1nc(Nc2n[nH]c3c2CN(C(=O)N[C@H](CN(C)C)c2ccccc2)C3(C)C)c2sccc2n1 | 0.376 | 0.237
N[C@@H]1CN(c2c(F)cc3c(=O)c(C(=O)O)cn([C@@H]4C[C@@H]4F)c3c2Cl)CC12CC2 [Sitafloxacin Hydrate] | 1.13 | 1.37

SMILES | fractional viability (2uM) | fractional viability (10uM)
CNC[C@H](O)c1cccc(O)c1 [Phenylephrine HCl] | 0.871 | 0.749
O=C(O[C@@H]1Cc2c(O)cc(O)cc2O[C@@H]1c1cc(O)c(O)c(O)c1)c1cc(O)c(O)c(O)c1 [(-)-Epigallocatechin Gallate] | 0.981 | 0.645
CC(C)C[C@H](NC(=O)CNC(=O)c1cc(Cl)ccc1Cl)B(O)O | 0.525 | 0.254
COC(=O)c1ccc2c(c1)NC(=O)/C2=C(\Nc1ccc(N(C)C(=O)CN2CCN(C)CC2)cc1)c1ccccc1 [Nintedanib (BIBF 1120)] | 1.32 | 0.372
N#C[C@@H]1CCCN1C(=O)CNC12CC3CC(CC(O)(C3)C1)C2 [Vildagliptin (LAF-237)] | 1.2 | 0.969
CCN(CC)CCN(Cc1ccc(-c2ccc(C(F)(F)F)cc2)cc1)C(=O)Cn1c(SCc2ccc(F)cc2)nc(=O)c2c1CCC2 | 0.76 | 0.0367
COc1cc2ncnc(Nc3ccc(Cl)cc3F)c2cc1OC | 1.25 | 1.64
Oc1ccc(Nc2nc(-c3ccc(Cl)cc3)cs2)cc1 | 0.838 | 0.833
N#Cc1ccc2[nH]c(O)c(-c3ccc(CN4CCOCC4)cn3)c2c1 | 1.07 | 0.707
CO[C@H]1C[C@@H]2CC[C@@H](C)[C@@](O)(O2)C(=O)C(=O)N2CCCC[C@H]2C(=O)O[C@H]([C@H](C)C[C@@H]2CC[C@@H](O)[C@H](OC)C2)CC(=O)[C@H](C)/C=C(\C)[C@@H](O)[C@@H](OC)C(=O)[C@H](C)C[C@H](C)/C=C/C=C/C=C/1C [Rapamycin (Sirolimus)] | 0.942 | 0.868
N[C@@H]1CCCN(c2c(/C=C3\SC(=O)NC3=O)cccc2-c2ccccc2)C1 | 1.06 | 0.941
CN(C)C(=O)c1ccc(S(=O)(=O)c2ccc(NC(=O)[C@@](C)(O)C(F)(F)F)c(Cl)c2)cc1 | 0.83 | 0.753
C#C[C@]1(O)CC[C@H]2[C@@H]3CCc4cc(OC)ccc4[C@H]3CC[C@@]21C [Mestranol] | 1.11 | 0.958
CC(C)NCC(O)c1ccc(NS(C)(=O)=O)cc1 (centres undefined) [Sotalol] | 0.988 | 0.845
CNc1ncc2cc(-c3cc(NC(=O)NCCC(C)(C)C)c(F)cc3C)c(C)nc2n1 | 0.828 | 0.775
COc1cc(C=O)ccc1O [Vanillin] | 1.11 | 0.938
C1=N/C2=N/c3ccc(OCCN4CCCC4)c(c3)COC/C=C/COCc3cccc(c3)C(=C1)N2 [Pacritinib (SB1518)] | 0.318 | 0.0734
Cc1[nH]c(/C=C2\C(=O)Nc3ccccc32)c(C)c1CCC(=O)O [TSU-68 (SU6668, Orantinib)] | 1.1 | 1.05
CC(=O)N1CCN(c2ccc(OCC3COC(Cn4ccnc4)(c4ccc(Cl)cc4Cl)O3)cc2)CC1 (centres undefined) [Ketoconazole] | 1.05 | 0.864
CN(CCOc1ccc(NS(C)(=O)=O)cc1)CCc1ccc(NS(C)(=O)=O)cc1 [Dofetilide] | 1.08 | 0.78
CCN(CC)CCCC(C)Nc1c2ccc(Cl)cc2nc2ccc(OC)cc12 (centres undefined) [Quinacrine 2HCl] | 0.837 | 0.105
Cc1nc(C)c(Cl)c(O)c1Cl [Clopidol] | 0.76 | 1.03
O=C(O)P(=O)(O)O [Foscarnet Sodium] | 0.963 | 1.04
CC(C)(C)NS(=O)(=O)c1cncc(-c2cc(F)c3nc(N)nn3c2)c1 | 1.04 | 1.06

From the supplement of paper PMC5919970
